Data published in PubChem BioAssay AID504845 (National Center for Advancing Translational Sciences (NCATS), 2011).
About 150 (0.038%) of roughly 390,000 compounds were called active. Inconclusive means that the source gave no clear call. Such entries were picked first, then a sample of the others. Calls follow the shape of the dose curve; as a rule, active = well fitted inhibition curve with a large enough effect; inconclusive = small, poorly fitted or top-dose-only effect; inactive = no such curve, though single readings can be large or run the other way. Potencies beside an inconclusive call are fits to weak or partial responses and may not hold up.

What follows are compounds tested against Regulator of G-protein signaling 4 (Homo sapiens) (UniProt P49798) (assay: Inhibitors of Regulator of G Protein Signaling (RGS) 4: qHTS). Details: Transcreener GDP fluorescence polarization, RGS4-accelerated GTP hydrolysis; series mostly up to 114 µM.
Summary of the method: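 MLSMR compounds (23 nl, pin-transferred) preincubated 10 min at room temperature with a 500nM (2x) first reagent, then RGS4 at 900nM (2x) plus Transcreener GDP mix added; fluorescence polarization (620/688 nm) read before and after 90 min at 30 °C.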
Also: nearly all actives have a fitted effect of over 75% in size.
Potency is read from the fitted curve at half-maximal effect; tags tell the direction and shape of the fitted curve.

Sequence of UniProt P49798 (P49798 whole entry, looked up): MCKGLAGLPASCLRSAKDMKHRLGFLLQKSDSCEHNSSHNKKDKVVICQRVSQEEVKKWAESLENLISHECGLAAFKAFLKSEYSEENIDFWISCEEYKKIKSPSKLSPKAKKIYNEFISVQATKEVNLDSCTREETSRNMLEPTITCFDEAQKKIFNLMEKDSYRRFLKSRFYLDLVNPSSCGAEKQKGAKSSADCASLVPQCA

Compound	Potency
COc1ccc2c(c1)CCc1cn[nH]c1-2	inconclusive: 44.7 µM [inhibitor, partial curve, poor fit]
O=C(NCC1CCCO1)C1CCN(C2CCN(C(=O)CC3CCCC3)CC2)CC1 (centres undefined)	inactive
O=C1Nc2ccc(F)cc2C12Nc1ccccc1-c1nnc(SCc3ccccc3F)nc1O2 (centres undefined)	inactive
COc1ccc(Cl)cc1NC(=O)CCCn1c(C)c2cnn(-c3ccccc3)c(=O)c2c1C	inactive
COc1ccccc1C(=O)Oc1ccc(N2C(=O)CCC2=O)cc1	inconclusive: 89.1 µM [inhibitor, single point]
CC1CN(c2nc3c(c(=O)[nH]c(=O)n3C)n2Cc2ccccc2F)CC(C)O1 (centres undefined)	inactive
COc1ccc(Br)cc1C1CC(=O)N2CN(C)CSC2=C1C#N (centres undefined)	inconclusive: 50.1 µM [inhibitor, partial curve, poor fit]
CCCN=C1N/C(=C\c2ccco2)C(=O)N1c1ccccc1	inactive
Cc1ccccc1OCC(=O)NNC(=O)CSc1nc(N)cc(N)n1	inconclusive: 31.6 µM [inhibitor, full curve, poor fit]
O=C1C=CC(=O)c2c(O)c(CO)c(CO)c(O)c21	inconclusive: 17.8 µM [inhibitor, full curve, poor fit]
O=C(O)c1cccc(NC(=S)NC(=O)C(c2ccccc2)c2ccccc2)c1	inconclusive: 56.2 µM [inhibitor, partial curve, poor fit]
O=C1/C(=C/c2cccnc2)SC(=S)N1C1CCS(=O)(=O)C1 (centres undefined)	inactive
O=C(N/N=C/c1ccccn1)c1cc(-c2ccccc2)nc2ccccc12	inactive
N#CCCn1cc(C(=O)Nc2ccc(C(=O)O)cc2)c(-c2cccs2)n1	inconclusive: 28.2 µM [inhibitor, full curve, poor fit]
Cc1ccc(NC(=S)NNc2ncc(C(F)(F)F)cc2Cl)c(C)c1	inconclusive: 79.4 µM [inhibitor, partial curve, poor fit]
CCCCC1=CC2=C(c3ccco3)C(=O)C(C)(OC(=O)c3ccc(OC)cc3)C(=O)C2=CN1CCOC (centres undefined)	inactive
COC(=O)/C=C1\S/C(=N/NC(=O)c2ccc(OC)cc2)NC1=O	inconclusive: 31.6 µM [inhibitor, full curve, poor fit]
O=C(/C=C/c1cccc([N+](=O)[O-])c1)Nc1cc(C(=O)O)cc(C(=O)O)c1	inconclusive: 22.4 µM [inhibitor, full curve, poor fit]
CC(N)(COP(=O)(O)O)C(=O)O (centres undefined)	inconclusive: 0.532 µM [inhibitor, partial curve, poor fit]
Nc1nc(SCC(=O)NCCO)nc2sc3c(c12)CCCC3	inconclusive: 79.4 µM [inhibitor, partial curve, poor fit]
Cc1cccc(Oc2c([N+](=O)[O-])c(=O)n(C)c3ccccc23)c1	inconclusive: 89.1 µM [inhibitor, partial curve, poor fit]
O=C(CSc1cccc2cccnc12)Nc1cc(C(=O)O)cc(C(=O)O)c1	inactive

Compound	Potency
CN1CCN(C(=O)C2=C[C@H](C3CC3)C[C@H](OCc3ccc(CO)cc3)O2)CC1	inconclusive: 79.4 µM [inhibitor, single point]
CN1CCc2cccc3c2C1Cc1ccc(O)c(O)c1-3 (centres undefined)	inconclusive: 37.7 µM [inhibitor, partial curve, poor fit]
N#C/C(=C/c1ccc(N2CCOCC2)o1)C(=O)Nc1ccccc1	inconclusive: 89.1 µM [inhibitor, single point]
CC(=O)Nc1sc(N/N=C\c2ccco2)nc1-c1cccs1	inconclusive: 50.1 µM [inhibitor, single point]
O=c1[nH]c(-c2ccccn2)nc2sc(-c3ccccc3)cc12	inconclusive: 56.2 µM [inhibitor, partial curve, poor fit]
CCOc1cccc(C(=O)NC(=S)Nc2ccc(N3CCN(CC)CC3)cc2)c1	inactive
O=C(CSc1ncccc1C(=O)O)c1ccccc1F	inactive
O=C(CC1NCCNC1=O)Nc1cccc(F)c1 (centres undefined)	inactive
O=S(=O)(c1ccc(Cl)c(F)c1)N1CCC(c2nc(-c3ccncc3)no2)CC1	inactive
COc1cccc(CN(C)CC(=O)Nc2cccc(S(N)(=O)=O)c2)c1OC	inconclusive: 89.1 µM [inhibitor, single point]
CCOc1cc(/C=C(/C#N)c2nc3ccccc3[nH]2)ccc1OCc1ccc(C(=O)O)o1	inconclusive: 79.4 µM [inhibitor, partial curve, poor fit]
Cc1ccc(C(C[N+](=O)[O-])n2nc(C)cc2C)cc1 (centres undefined)	inconclusive: 10 µM [inhibitor, full curve, poor fit]
C/C=C\C=C/C(=O)Nc1cccc(C2=NOC3(C2)C[C@@H](C(N)=O)N(C(=O)/C=C/CC)C3)c1 (some centres undefined)	inconclusive: 20 µM [inhibitor, full curve, poor fit]
CC(=O)/C(C(=N)N1CCN(Cc2ccccc2)CC1)=C(\C)O	inactive
CCCCN1C(=O)CCC(C(=O)O)C1c1ccccc1 (centres undefined)	inconclusive: 89.1 µM [inhibitor, single point]
COc1ccccc1NC(=O)Cc1csc(NC(=S)Nc2ccc(C)cc2)n1	inactive
CC1=C(C)/C(=N\OS(=O)(=O)c2ccc(C)cc2)C=CC1=O	inconclusive: 10 µM [inhibitor, full curve, poor fit]
COc1ccc(OC)c(-c2c3c([nH]c(=S)c2C#N)CCCC3)c1	inconclusive: 79.4 µM [inhibitor, partial curve, poor fit]
CCOc1ccc(N=Nc2ccc(O)c3ncccc23)cc1	inactive
COc1cc(C#Cc2c(-c3cncn3C)n(C)c3ccc(-c4ccc(OC)nc4)cc23)cc(OC)c1	inactive
CC1(c2ccccc2)O[C@@H]2C[C@H]3[C@@H]4CCC5=CC(=O)C=C[C@]5(C)[C@@]4(F)[C@@H](O)C[C@]3(C)[C@]2(C(=O)CO)O1 (some centres undefined)	inactive
COc1cccc(N(CC(=O)N2CCCCCC2)S(C)(=O)=O)c1	inactive
